In the supplement of paper PMC8728848:
The list shows a part of the results.

How the values were obtained:
Test in all cases: glycan array binding signal (z-score within array); higher = stronger binding
Details in all cases: glycan notation: IUPAC condensed, linker removed
[1] = target: GlcNAc(b1-3)Gal(b1-4)GlcNAc(b1-3)Gal(b1-4)GlcNAc(b1-3)GalNAc
In short: (§1)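 From the Consortium for Functional Glycomics database, 3228 arrays were curated, keeping only those whose protein sequence was available. Binding is given as a within-array Z-score averaged across arrays sharing a protein sequence and across linkers. Negative Z-scores can be read as non-binding.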

[2] = target: GlcNAc(b1-3)Gal(b1-4)GlcNAc(b1-3)GalNAc
In short: as §1

[3] = target: GlcNAc(b1-3)Gal(b1-4)GlcNAc(b1-3)[GlcNAc(b1-3)Gal(b1-4)GlcNAc(b1-3)]GalNAc
In short: as §1

[4] = target: GlcNAc(b1-3)Gal(b1-4)GlcNAc(b1-6)[Gal(b1-3)]GalNAc
In short: as §1

[5] = target: GlcNAc(b1-3)Gal(b1-4)GlcNAc(b1-6)[GlcNAc(b1-3)Gal(b1-3)]GalNAc
In short: as §1

[6] = target: GlcNAc(b1-3)Gal(b1-4)GlcNAc(b1-6)[GlcNAc(b1-3)]Gal(b1-4)GlcNAc
In short: as §1

[7] = target: GlcNAc(b1-3)GalNAc
In short: as §1

[8] = target: GlcNAc(b1-3)Man
In short: as §1

[9] = target: GlcNAc(b1-3)[GlcNAc(b1-4)][GlcNAc(b1-6)]GlcNAc
In short: as §1

[10] = target: GlcNAc(b1-3)[GlcNAc(b1-6)]Gal(b1-4)GlcNAc
In short: as §1

[11] = target: GlcNAc(b1-3)[GlcNAc(b1-6)]GalNAc
In short: as §1

[12] = target: GlcNAc(b1-4)Gal(b1-4)GlcNAc
In short: as §1

[13] = target: GlcNAc(b1-4)GlcNAc
In short: as §1

[14] = target: GlcNAc(b1-4)GlcNAc(b1-4)GlcNAc
In short: as §1

[15] = target: GlcNAc(b1-4)GlcNAc(b1-4)GlcNAc(b1-4)GlcNAc(b1-4)GlcNAc
In short: as §1

[16] = target: GlcNAc(b1-4)GlcNAc(b1-4)GlcNAc(b1-4)GlcNAc(b1-4)GlcNAc(b1-4)GlcNAc
In short: as §1

[17] = target: GlcNAc(b1-4)[GlcNAc(b1-6)]GalNAc
In short: as §1

[18] = target: GlcNAc(b1-6)Gal(b1-4)GlcNAc
In short: as §1

[19] = target: GlcNAc(b1-6)GalNAc
In short: as §1

[20] = target: GlcNAc6S(b1-3)Gal(b1-4)GlcNAc
In short: as §1

[21] = target: Kdn(a2-3)Gal(b1-3)GalNAc
In short: as §1

[22] = target: Kdn(a2-3)Gal(b1-3)GlcNAc
In short: as §1

[23] = target: Kdn(a2-3)Gal(b1-4)Glc
In short: as §1

[24] = target: Kdn(a2-3)Gal(b1-4)GlcNAc
In short: as §1

[25] = target: Kdn(a2-3)Gal(b1-4)[Fuc(a1-3)]GlcNAc
In short: as §1

[26] = target: Kdn(a2-6)Gal(b1-4)GlcNAc
In short: as §1

[27] = target: Man(a1-2)Man(a1-2)Man(a1-3)Man
In short: as §1

[28] = target: Man(a1-2)Man(a1-2)Man(a1-6)[Man(a1-3)]Man
In short: as §1

[29] = target: Man(a1-2)Man(a1-3)Man
In short: as §1

[30] = target: Man(a1-2)Man(a1-3)[Man(a1-2)Man(a1-6)]Man
In short: as §1

[31] = target: Man(a1-2)Man(a1-3)[Man(a1-2)Man(a1-6)]Man(a1-6)[Man(a1-2)Man(a1-2)Man(a1-3)]Man
In short: as §1

[32] = target: Man(a1-2)Man(a1-3)[Man(a1-2)Man(a1-6)]Man(a1-6)[Man(a1-2)Man(a1-2)Man(a1-3)]Man(b1-4)GlcNAc(b1-4)GlcNAc
In short: as §1

[33] = target: Man(a1-2)Man(a1-3)[Man(a1-6)]Man(a1-6)[Man(a1-2)Man(a1-3)]Man(b1-4)GlcNAc(b1-4)GlcNAc
In short: as §1

[34] = target: Man(a1-2)Man(a1-6)[Man(a1-3)]Man(a1-6)[Man(a1-2)Man(a1-2)Man(a1-3)]Man
In short: as §1

[35] = target: Man(a1-2)Man(a1-6)[Man(a1-3)]Man(a1-6)[Man(a1-2)Man(a1-2)Man(a1-3)]Man(b1-4)GlcNAc(b1-4)GlcNAc
In short: as §1

[36] = target: Man(a1-3)[Man(a1-6)]Man
In short: as §1

[37] = target: Man(a1-3)[Man(a1-6)]Man(a1-6)[Man(a1-2)Man(a1-3)]Man(b1-4)GlcNAc(b1-4)GlcNAc
In short: as §1

[38] = target: Man(a1-3)[Man(a1-6)]Man(a1-6)[Man(a1-3)]Man
In short: as §1

[39] = target: Man(a1-3)[Man(a1-6)]Man(a1-6)[Man(a1-3)]Man(b1-4)GlcNAc(b1-4)GlcNAc
In short: as §1

[40] = target: Man(a1-3)[Man(a1-6)]Man(b1-4)GlcNAc(b1-4)GlcNAc
In short: as §1

[41] = target: Man(a1-3)[Man(a1-6)]Man(b1-4)GlcNAc(b1-4)[Fuc(a1-6)]GlcNAc
In short: as §1

[42] = target: Man(a1-6)Man
In short: as §1

[43] = target: Man(b1-4)GlcNAc
In short: as §1

[44] = target: MurNAc(b1-4)GlcNAc
In short: as §1

[45] = target: Neu5Ac(a2-3)Gal
In short: as §1

B1: RBMC2 (Vibrio cholerae) (protein)
chain: KISVRSGFAIDAIGASASTLVGGTGGNLNAAVNVKDIKAIDLTWGKYYWGGYHLLALDFRMSNGSVISMGSKNYAYSKQTERFTVPAGSRIKGIKAWTAGWLLDGVQFELA
glycan array binding signal (z-score) [1]: -0.359 | glycan array binding signal (z-score) [2]: -0.427 | glycan array binding signal (z-score) [3]: -0.222 | glycan array binding signal (z-score) [4]: -0.394 | glycan array binding signal (z-score) [5]: -0.195 | glycan array binding signal (z-score) [6]: -0.316 | glycan array binding signal (z-score) [7]: -0.428 | glycan array binding signal (z-score) [8]: -0.042 | glycan array binding signal (z-score) [9]: -0.374 | glycan array binding signal (z-score) [10]: -0.411 | glycan array binding signal (z-score) [11]: -0.401 | glycan array binding signal (z-score) [12]: -0.361 | glycan array binding signal (z-score) [13]: 0.231 | glycan array binding signal (z-score) [14]: -0.445 | glycan array binding signal (z-score) [15]: -0.372 | glycan array binding signal (z-score) [16]: -0.35 | glycan array binding signal (z-score) [17]: -0.418 | glycan array binding signal (z-score) [18]: -0.407 | glycan array binding signal (z-score) [19]: -0.19 | glycan array binding signal (z-score) [20]: -0.445 | glycan array binding signal (z-score) [21]: 0.106 | glycan array binding signal (z-score) [22]: -0.337 | glycan array binding signal (z-score) [23]: 0.085 | glycan array binding signal (z-score) [24]: -0.461 | glycan array binding signal (z-score) [25]: -0.214 | glycan array binding signal (z-score) [26]: -0.264 | glycan array binding signal (z-score) [27]: -0.403 | glycan array binding signal (z-score) [28]: -0.293 | glycan array binding signal (z-score) [29]: -0.321 | glycan array binding signal (z-score) [30]: -0.48 | glycan array binding signal (z-score) [31]: -0.387 | glycan array binding signal (z-score) [32]: -0.129 | glycan array binding signal (z-score) [33]: -0.321 | glycan array binding signal (z-score) [34]: -0.305 | glycan array binding signal (z-score) [35]: -0.336 | glycan array binding signal (z-score) [36]: -0.45 | glycan array binding signal (z-score) [37]: 0.354 | glycan array binding signal (z-score) [38]: -0.045 | glycan array binding signal (z-score) [39]: -0.013 | glycan array binding signal (z-score) [40]: 4.41 | glycan array binding signal (z-score) [41]: 3.25 | glycan array binding signal (z-score) [42]: 0.668 | glycan array binding signal (z-score) [43]: -0.343 | glycan array binding signal (z-score) [44]: -0.344 | glycan array binding signal (z-score) [45]: -0.345
